± gives the standard deviation of the averaged measurements. Whole data set: some 33,000 sequences, median “E-score (dimensionless, -0.5 to 0.5)” near -0.049, cut for the highest 2% near 0.37. The list shows a part of the results.
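Further: 200 nM protein in PBS on universal arrays averaged over duplicate arrays.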

The experiment has as its system T1, PmTbr T-box DNA-binding domain (GST fusion).
T1 sequence: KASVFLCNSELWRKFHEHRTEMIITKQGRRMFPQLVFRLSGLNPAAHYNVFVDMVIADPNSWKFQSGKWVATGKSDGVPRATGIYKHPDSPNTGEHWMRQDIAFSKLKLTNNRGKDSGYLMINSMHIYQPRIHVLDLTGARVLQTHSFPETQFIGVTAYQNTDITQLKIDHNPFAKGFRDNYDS
The experiment in a line: PBM E-score of 8-mer (E-score (dimensionless, -0.5 to 0.5)); Tbr is Tbrain of the sea star Patiria miniata (Pm) or the sea urchin Strongylocentrotus purpuratus (Sp); higher = stronger binding preference; most listed sequences are background and not binding sites. As to conditions: the construct has about 5 more residues each side. The method, then:
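Universal protein-binding microarray (Agilent AMADID 016060, 60-bp probes with a 35-bp variable region) incubated with 200 nM GST-fused Patiria miniata Tbr T-box DNA-binding domain (residues 272-466) in PBS pH 7.5. Scored for every ungapped 8-mer (given with its reverse complement) by the Universal PBM Analysis Suite as E-score (modified Wilcoxon-Mann-Whitney enrichment, range -0.5 to 0.5; >0.45 counts as bound) and Z-score of median probe intensity. Two replicate arrays (datasets 1 and 2).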
As for ATTCCATC, the “PBM E-score of 8-mer” value was -0.0954 ± 0.0028. As for AGGAAACT, the figure is -0.139 ± 0.027; as for CGGGCGGA, -0.189 ± 0.04. As for AAAGATAA, the figure is -0.0676 ± 0.051. For GGCCTTAC, the “PBM E-score of 8-mer” value was -0.143 ± 0.0078. Under CAGGACCG stands -0.191 ± 0.015; under CTACAGGA, 0.116 ± 0.046. Turning to AAATGATC, the “PBM E-score of 8-mer” value is -0.0225 ± 0.031. Under CGGGCTCC stands -0.332 ± 0.0046; under CGTGTGTC, 0.204 ± 0.018.

Regarding ATGCTTCG, the “PBM E-score of 8-mer” value is 0.051 ± 0.046.

Regarding GCCAATTA, the “PBM E-score of 8-mer” value was 0.138 ± 0.0052. Under ACGTTTAG stands -0.0795 ± 0.0073; under ACAGGATC, -0.0274 ± 0.015; under CTCACGTC, 0.264 ± 0.018. Under GAAACGAA stands 0.0128 ± 0.033. For AAAATATG, the “PBM E-score of 8-mer” value is -0.169 ± 0.0037. As for CGGGACTA, the figure is -0.0323 ± 0.069. Under CCCAATTA stands -0.0701 ± 0.005. As for CCACATGA, the figure is 0.00817 ± 0.0018; as for GAAGTGAC, 0.379 ± 0.017. For the sequence CGAAGGGC, the “PBM E-score of 8-mer” value is -0.169 ± 0.0098.

Consider CGACCTCG, for which the “PBM E-score of 8-mer” value was 0.14 ± 0.074. Consider ACAATAAT, for which the “PBM E-score of 8-mer” value stood at 0.0359 ± 0.05.

Consider TCACGAGA, for which the “PBM E-score of 8-mer” value worked out at 0.153 ± 0.097. As for ACTGAAGC, the figure is 0.108 ± 0.028.

Regarding CACTCCTG, the “PBM E-score of 8-mer” value is 0.0992 ± 0.0078. Under GCACCAGA stands -0.03 ± 0.061.

Take CCGCTTTC: the “PBM E-score of 8-mer” value was -0.0798 ± 0.036.

For the sequence AGCCGCAA, the “PBM E-score of 8-mer” value was found to be 0.0636 ± 0.056. As to GGGCTTCA, the “PBM E-score of 8-mer” value was -0.203 ± 0.028. Take ATAGTCAG: the “PBM E-score of 8-mer” value was -0.0739 ± 0.082.

Regarding CAAACGCG, the “PBM E-score of 8-mer” value was determined as 0.0696 ± 0.011. With ATTACCTC, the “PBM E-score of 8-mer” value was -0.222 ± 0.01.

As to AACGCGAC, the “PBM E-score of 8-mer” value is 0.194 ± 0.092. As for GCGTTAGA, the figure is 0.189 ± 0.00094. On to AATTAACG, for which the “PBM E-score of 8-mer” value was -0.0199 ± 0.0039. As for ATGCAAAG, the figure is -0.0353 ± 0.024; as for AATGCACT, 0.0636 ± 0.028. As for TGCCGACA, the figure is 0.264 ± 0.01. As for CCATTGTA, the figure is -0.0826 ± 0.004.

Regarding TACAAGCA, the “PBM E-score of 8-mer” value was -0.00648 ± 0.038. As for ACGTATAT, the figure is -0.0151 ± 0.029; as for CCCGAAAC, 0.0499 ± 0.032. As for ATCTGGTC, the figure is -0.152 ± 0.093; as for GACAAACA, 0.125 ± 0.0063. Under TGATGCAA stands -0.0634 ± 0.069; under ACCCGGAA, -0.214 ± 0.041; under CAAAATTC, -0.214 ± 0.0047. In the case of CTGAAGGC, the “PBM E-score of 8-mer” value was -0.209 ± 0.064. As for TATTTAGA, the figure is -0.234 ± 0.029; as for GTCTAGAA, -0.157 ± 0.048; as for CATCCCCG, -0.089 ± 0.0054. Under ATGATAGC stands 0.125 ± 0.034. Under AAGAATTA stands -0.115 ± 0.075; under GAAAGTCA, -0.106 ± 0.012; under AAAGCCCA, -0.318 ± 0.025. With GCTTACGA, the “PBM E-score of 8-mer” value was -0.175 ± 0.0062. As for GTAATAGA, the figure is -0.114 ± 0.0055; as for ATTCTAAC, -0.231 ± 0.014. For CGTCTCAA, the “PBM E-score of 8-mer” value was -0.199 ± 0.018.

Consider AAAGAAAA, for which the “PBM E-score of 8-mer” value was -0.0363 ± 0.13. Under CCCCTTAC stands -0.192 ± 0.063. As for AATTTACA, the figure is 0.185 ± 0.084; as for AGTATACG, 0.0235 ± 0.017.

Consider ATAACATC, for which the “PBM E-score of 8-mer” value was -0.101 ± 0.065. As to CAATAGCA, the “PBM E-score of 8-mer” value is 0.117 ± 0.08. As for ACTACGCC, the figure is -0.0843 ± 0.0083; as for GGAAAGAA, -0.255 ± 0.048; as for ATGGTATA, -0.0748 ± 0.057. Under TGGCGCCA stands 0.309 ± 0.0053; under ACTGGGTC, -0.119 ± 0.079; under CCTGGGAC, -0.131 ± 0.0099. Under TGCGCCAA stands 0.175 ± 0.014; under CGGGGTCA, -0.187 ± 0.032; under AACCTCTG, -0.151 ± 0.032. Take CCCTCCCA: the “PBM E-score of 8-mer” value was -0.132 ± 0.0075. As for AACAAGTA, the figure is 0.161 ± 0.051; as for AAGATCCA, -0.165 ± 0.029; as for CTTTCTTA, -0.0589 ± 0.096.

In the case of GTTCAATA, the “PBM E-score of 8-mer” value was -0.161 ± 0.06. In the case of CTTCCGGA, the “PBM E-score of 8-mer” value is -0.287 ± 0.054. Under GCGTAATA stands 0.146 ± 0.028; under AGTACGCG, -0.0961 ± 0.015; under GACTCGGC, -0.00342 ± 0.13. As for TATCCCCA, the figure is -0.248 ± 0.049.
